Test results from the supplement of paper PMC12217912.
The other results are listed elsewhere or left out. Sequences were assembled here from the parent chain. Values near 0.05 are background.

B1: TEV protease; numbered along this chain (parent)
chain: MGESLFKGPRDYNPISSSICHLTNESDGHTTSLYGIGFGPFIITNKHLFRRNNGTLVVQSLHGVFKVKDTTTLQQHLVDGRDMIIIRMPKDFPPFPQKLKFREPQREERICLVTTNFQTKSMSSMVSDTSCTFPSGDGIFWKHWIQTKDGQCGSPLVSTRDGFIVGIHSASNFTNTNNYFTSVPKNFMELLTNQEAQQWVSGWRLNADSVLWGGHKVFMVKPEEPFQPVKEATQL

Variants of: B1
Test: raw area under fraction-flipped curve 0-4 h after induction (AUC4h, not background-subtracted), DNA-recorder readout of cleavage of the substrate (dimensionless); higher = more cleavage of the substrate by the protease variant
Settings: temperature: 34 °C; time window: 0-4 h after rhamnose induction
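Note: Bxb1 expression induced with 0.2% (w/v) L-rhamnose at OD600 near 0.5, cultures sampled hourly, flipped fraction per protease–substrate barcode pair counted by paired-end Illumina sequencing.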

Variant | area with substrate ENLYEQS | area with substrate ENLYGQS | area with substrate ENLYHQS | area with substrate ENLYIQS | area with substrate ENLYKQS | area with substrate ENLYLQS | area with substrate ENLYPQS | area with substrate ENLYQQS | area with substrate ENLYRQS | area with substrate ENLYSQS | area with substrate ENLYVQS | area with substrate ENLYWQS | area with substrate ENLYYQS | area with substrate ENLYMQS | area with substrate ENLYNQS | area with substrate ENLYDQS | area with substrate ENLYTQS
L5N | 0.0541 | 0.0646 | 0.0745 | 0.161 | 0.0321 | 0.0919 | 0.0705 | 0.0714 | 0.0472 | 0.0718 | 0.108 | 0.0926 | 0.069 | – | – | – | –
L5C | 0.0739 | – | – | 0.141 | – | – | 0.0816 | 0.0639 | 0.0596 | – | – | – | 0.068 | 0.0692 | 0.0581 | – | –
F226R | – | 0.0655 | – | 0.129 | 0.0305 | – | – | – | 0.0836 | 0.0787 | 0.121 | 0.0904 | – | – | 0.0638 | 0.0645 | –
F226T | – | – | 0.0643 | 0.14 | – | – | 0.0876 | 0.0624 | – | – | – | 0.0726 | 0.075 | – | 0.0944 | 0.0652 | –
W203I | 0.0647 | 0.0596 | 0.0588 | 0.0471 | 0.0632 | – | 0.0656 | – | 0.0555 | – | – | – | 0.0496 | 0.0612 | – | – | –
T55A | 0.0686 | 0.0512 | 0.0562 | 0.109 | – | – | 0.0675 | 0.0668 | – | 0.0678 | – | 0.0611 | – | 0.0864 | 0.0705 | – | 0.0794
L205T | – | – | 0.0486 | – | 0.0721 | – | – | – | – | – | – | – | – | – | – | – | –
N52L | 0.0623 | – | 0.0577 | – | 0.0604 | 0.0733 | 0.0562 | 0.0719 | – | 0.075 | 0.0809 | 0.0681 | – | 0.0477 | 0.0632 | – | 0.0611
H215P | 0.0563 | – | 0.0819 | – | 0.0607 | 0.042 | 0.0685 | – | 0.05 | 0.0663 | 0.0601 | 0.0678 | – | 0.0656 | 0.082 | 0.0604 | –
P225Q | 0.073 | 0.0715 | – | 0.154 | – | – | – | 0.0729 | 0.0669 | – | 0.0575 | 0.0751 | 0.0921 | 0.0827 | 0.0579 | – | –
E223W | 0.0688 | 0.0883 | 0.0682 | 0.138 | 0.0519 | 0.0703 | 0.0695 | 0.0649 | 0.0488 | – | 0.155 | 0.0995 | 0.0721 | 0.065 | 0.0593 | 0.0599 | –
S124N | – | – | – | – | 0.09 | – | – | 0.0702 | – | – | 0.0871 | 0.0941 | 0.074 | – | 0.0601 | – | –
S124L | 0.0715 | 0.0692 | 0.086 | – | 0.0607 | – | 0.071 | – | 0.0604 | – | – | – | – | 0.0798 | 0.0557 | – | 0.0812
V113I | 0.0596 | – | 0.0618 | 0.114 | 0.0253 | – | – | 0.0584 | – | – | – | 0.0752 | 0.0632 | 0.0915 | 0.12 | – | –
P94F | – | – | – | 0.0409 | 0.0511 | – | 0.063 | – | 0.0591 | – | 0.107 | 0.107 | – | – | – | – | –
K68H | 0.0747 | 0.0685 | 0.0778 | – | 0.0625 | 0.11 | 0.0692 | 0.0684 | – | 0.099 | 0.108 | – | 0.0619 | – | 0.0951 | – | –

Variant | area with substrate ENLYEQS | area with substrate ENLYGQS | area with substrate ENLYHQS | area with substrate ENLYIQS | area with substrate ENLYKQS | area with substrate ENLYLQS | area with substrate ENLYPQS | area with substrate ENLYQQS | area with substrate ENLYRQS | area with substrate ENLYSQS | area with substrate ENLYVQS | area with substrate ENLYWQS | area with substrate ENLYYQS | area with substrate ENLYMQS | area with substrate ENLYNQS | area with substrate ENLYDQS | area with substrate ENLYTQS
K68D | 0.0715 | 0.0625 | 0.0664 | – | – | – | 0.0809 | 0.0874 | – | 0.076 | – | 0.0719 | – | 0.0887 | 0.0732 | – | –
T147K | 0.0673 | 0.0552 | 0.066 | 0.0576 | 0.0624 | – | – | 0.0577 | 0.0558 | 0.0576 | – | – | – | – | – | – | 0.0569
H76K | 0.0592 | 0.0673 | – | 0.0842 | 0.021 | 0.0691 | 0.0678 | 0.0642 | 0.0636 | – | 0.0743 | 0.0742 | – | – | – | – | 0.0687
V229T | 0.0707 | – | – | 0.112 | – | – | – | – | – | 0.0851 | – | 0.0767 | – | 0.0836 | 0.0659 | 0.0793 | –
V229S | 0.0796 | 0.0666 | – | – | – | – | 0.0632 | 0.0598 | 0.0527 | 0.0794 | 0.131 | – | 0.0837 | 0.0798 | 0.066 | 0.064 | 0.0852
L190A | 0.0675 | – | – | 0.116 | 0.0499 | – | 0.0845 | 0.0507 | 0.064 | – | 0.11 | 0.0767 | 0.0604 | 0.0856 | 0.0704 | – | 0.0808
Q234A | 0.105 | 0.0565 | 0.0844 | 0.116 | – | – | 0.0592 | 0.062 | 0.0532 | – | – | 0.087 | – | – | 0.0714 | – | –
K142A | 0.0759 | – | 0.0776 | – | – | – | 0.0674 | – | 0.0722 | – | 0.104 | 0.0732 | 0.0715 | – | 0.0606 | – | 0.0726
R109V | 0.0657 | 0.0533 | 0.0616 | 0.111 | 0.0569 | – | 0.104 | 0.0595 | 0.0657 | 0.0708 | 0.0972 | 0.0821 | 0.0856 | 0.0801 | 0.0722 | – | –
F6I | 0.0542 | – | – | – | 0.0628 | – | 0.0808 | – | – | – | – | – | – | – | 0.0642 | – | –
F6P | 0.055 | – | 0.0604 | 0.0969 | – | – | 0.0762 | 0.0621 | – | 0.0534 | – | 0.095 | 0.0534 | – | – | – | –
G153K | 0.0535 | 0.0578 | 0.0418 | – | – | – | – | – | 0.0487 | 0.0574 | 0.0528 | 0.0463 | – | – | 0.0562 | – | –
T233L | 0.0667 | 0.0658 | – | 0.0943 | – | 0.0947 | 0.0711 | 0.0622 | 0.0521 | – | 0.0993 | – | – | 0.0916 | 0.0677 | 0.062 | 0.0613
I139R | 0.0546 | 0.082 | 0.0568 | 0.0671 | 0.0575 | – | 0.0615 | 0.062 | 0.0666 | 0.0595 | – | 0.0826 | – | – | 0.0624 | – | 0.0922
G150D | 0.0653 | 0.0443 | – | 0.0503 | 0.0504 | – | – | 0.091 | 0.0539 | – | 0.0658 | 0.0497 | 0.067 | 0.0646 | 0.0716 | – | –
